{"source": "PubChem BioAssay AID1259400", "about": "(National Center for Advancing Translational Sciences (NCATS), 2018)", "note": "Out of some 350,000 compounds screened, about 2,100 (0.6%) were called active. This list was built around the results that the source calls inconclusive (neither active nor inactive); the mix of calls is not that of the screen.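 Rule for the calls: active = activity change of -60% or lower, but not beyond a set lower limit; inconclusive = change between -60% and -40%, or beyond the set limit; inactive = change above -40%.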 % is set by controls: 0 for no effect and ±100 for the full control effect.", "data": [{"biological_target": "Relaxin receptor 1 (Homo sapiens) (UniProt Q9HBX9)", "sequence (Q9HBX9 whole entry, looked up)": "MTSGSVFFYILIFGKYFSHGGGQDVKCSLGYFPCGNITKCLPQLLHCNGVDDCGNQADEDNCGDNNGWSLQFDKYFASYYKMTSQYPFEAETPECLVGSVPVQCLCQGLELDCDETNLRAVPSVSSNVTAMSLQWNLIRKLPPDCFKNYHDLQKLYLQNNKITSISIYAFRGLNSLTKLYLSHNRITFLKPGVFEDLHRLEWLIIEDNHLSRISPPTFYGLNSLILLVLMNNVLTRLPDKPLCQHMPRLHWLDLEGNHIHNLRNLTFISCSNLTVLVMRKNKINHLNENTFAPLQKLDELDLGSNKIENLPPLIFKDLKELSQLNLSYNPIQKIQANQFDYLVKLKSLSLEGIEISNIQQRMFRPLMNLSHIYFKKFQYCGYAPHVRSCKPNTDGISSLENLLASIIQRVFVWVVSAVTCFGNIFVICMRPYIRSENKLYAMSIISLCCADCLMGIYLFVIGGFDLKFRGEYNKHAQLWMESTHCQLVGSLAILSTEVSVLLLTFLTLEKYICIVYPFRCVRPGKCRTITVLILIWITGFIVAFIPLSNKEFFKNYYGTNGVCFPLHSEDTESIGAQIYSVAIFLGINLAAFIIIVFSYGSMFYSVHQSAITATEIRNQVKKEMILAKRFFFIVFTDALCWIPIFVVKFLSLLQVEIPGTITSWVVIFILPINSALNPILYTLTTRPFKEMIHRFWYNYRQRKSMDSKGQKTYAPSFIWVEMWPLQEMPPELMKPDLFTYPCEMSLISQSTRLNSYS", "test": "qHTS Assay for Antagonists of the Relaxin Receptor RXFP1", "conditions": "HEK293-RXFP1, relaxin-stimulated cAMP HTRF, 30 min; at 57.5 µM; stronger effect = lower value", "values": [{"compound": "Cc1nn(C(=O)c2ccco2)c(C)c1Sc1ccccc1", "activity change, negative = inhibition": "inconclusive: -44.3%"}, {"compound": "COc1ccc(N=C2NC(=O)/C(=C\\C=C\\c3ccco3)S2)cc1", "activity change, negative = inhibition": "inconclusive: -55.2%"}, {"compound": "O=C(NCC(c1cccs1)N1CCOCC1)c1cc(=O)[nH]c2ccccc12", "note": "(stereo not given)", "activity change, negative = inhibition": "active: -77.1%"}, {"compound": "COc1ccc(C(=O)/C=C2/C(=O)Nc3ccccc32)c(OC)c1", "activity change, negative = inhibition": "active: -86.1%"}, {"compound": "O=S(=O)(c1ccc(NC(=S)N/N=C/c2cccc(Oc3ccccc3)c2)cc1)N1CCOCC1", "activity change, negative = inhibition": "inconclusive: -44.4%"}, {"compound": "Cc1c(C(=O)OC(C)C)sc(N)c1C(=O)OC(C)C", "activity change, negative = inhibition": "inconclusive: -48.6%"}, {"compound": "CC(C)c1ccc(NC(=O)c2cccc(Br)c2)cc1", "activity change, negative = inhibition": "inconclusive: -41.4%"}, {"compound": "CC(NC(=O)/C(C#N)=C1\\N=C(NC(=O)c2ccco2)c2ccccc21)c1ccccc1", "note": "(stereo not given)", "activity change, negative = inhibition": "inconclusive: -41.5%"}, {"compound": "O=C(Nc1ccc(NC(=O)c2cccs2)cc1)c1cccs1", "activity change, negative = inhibition": "inactive: -31.1%"}, {"compound": "COC(=O)c1cc2sc(C)cc2n1Cc1ccccc1", "activity change, negative = inhibition": "inconclusive: -47.9%"}, {"compound": "CC(Sc1ncnc2sc(-c3ccccc3)cc12)C(=O)NCC1CCCO1", "note": "(stereo not given)", "activity change, negative = inhibition": "active: -97.6%"}, {"compound": "COc1ccc(Cl)cc1NC(=O)c1c(NCc2ccc(C)o2)sc2c1CCCC2", "activity change, negative = inhibition": "active: -61.3%"}, {"compound": "O=c1cc(-c2ccc([N+](=O)[O-])cc2)c2cc3c(cc2[nH]1)OCCO3", "activity change, negative = inhibition": "inconclusive: -48.7%"}, {"compound": "Cc1cc(C)cc(OCC(=O)N(Cc2ccc(C)o2)C2CCS(=O)(=O)C2)c1", "note": "(stereo not given)", "activity change, negative = inhibition": "inactive: 5.53%"}, {"compound": "COc1ccc(N2CC(C(=O)N3CCN(C)CC3)CC2=O)cc1", "note": "(stereo not given)", "activity change, negative = inhibition": "inactive: -20.8%"}, {"compound": "Cc1nnc(SCC(=O)Nc2ccc3c(c2)OCO3)[nH]c1=O", "activity change, negative = inhibition": "inconclusive: -46.1%"}, {"compound": "NC(=O)SCC(=O)Nc1ccc(Cl)c(Cl)c1", "activity change, negative = inhibition": "active: -71.4%"}, {"compound": "O=C(CSCc1ccc([N+](=O)[O-])cc1)Nc1ccccc1C(=O)O", "activity change, negative = inhibition": "inconclusive: -48.5%"}, {"compound": "COc1ccc(NC(=O)c2cccs2)c([N+](=O)[O-])c1", "activity change, negative = inhibition": "inactive: -5.81%"}, {"compound": "O=C(O)c1ccccc1Nc1cccc(C(F)(F)F)c1", "activity change, negative = inhibition": "inconclusive: -55.6%"}, {"compound": "O=C(O)CCCn1cc(NC(=O)c2sc3ccccc3c2Cl)cn1", "activity change, negative = inhibition": "inconclusive: -42.8%"}, {"compound": "CCCCCn1c(=N)n(CC(O)COc2cccc(C)c2)c2ccccc21", "note": "(stereo not given)", "activity change, negative = inhibition": "inconclusive: -50%"}, {"compound": "CCCCNCC1C(Oc2ccc(Cl)cc2)C(=O)N1c1ccccc1C", "note": "(stereo not given)", "activity change, negative = inhibition": "inconclusive: -56.3%"}, {"compound": "CCC(=O)Nc1ccc(C(=O)CSc2nc3ccccc3[nH]2)cc1", "activity change, negative = inhibition": "inconclusive: -46.3%"}, {"compound": "Cc1ccc2oc(=O)n(CCNC(=O)Nc3ccc(C)c(F)c3)c2c1", "activity change, negative = inhibition": "inconclusive: -48.3%"}]}]}
